# Whole data set: some 110,000 compounds, median “z-score” near -0.1, cut for the highest 2% near 2. This is one part of the list. The source made the active and inactive calls.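 Rule for the calls: active = z-score in the third read window above 3 or below -3; inactive = the rest.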
# Biological target: Metabotropic glutamate receptor 8 (Rattus norvegicus) (UniProt P70579)
# Experiment: mGluR8 Gi/Go-coupled signaling modulation – cell-based, rat, thallium flux, HTS, primary screen (AID 488969)
# Conditions: HEK293 rat mGluR8, GIRK (G protein-gated inwardly rectifying potassium channel) thallium flux, FluoZin2; at 10 µM; stronger effect = higher value; submaximal glutamate (EC20) added with thallium
# UniProt P70579, sequence (P70579 whole entry, looked up): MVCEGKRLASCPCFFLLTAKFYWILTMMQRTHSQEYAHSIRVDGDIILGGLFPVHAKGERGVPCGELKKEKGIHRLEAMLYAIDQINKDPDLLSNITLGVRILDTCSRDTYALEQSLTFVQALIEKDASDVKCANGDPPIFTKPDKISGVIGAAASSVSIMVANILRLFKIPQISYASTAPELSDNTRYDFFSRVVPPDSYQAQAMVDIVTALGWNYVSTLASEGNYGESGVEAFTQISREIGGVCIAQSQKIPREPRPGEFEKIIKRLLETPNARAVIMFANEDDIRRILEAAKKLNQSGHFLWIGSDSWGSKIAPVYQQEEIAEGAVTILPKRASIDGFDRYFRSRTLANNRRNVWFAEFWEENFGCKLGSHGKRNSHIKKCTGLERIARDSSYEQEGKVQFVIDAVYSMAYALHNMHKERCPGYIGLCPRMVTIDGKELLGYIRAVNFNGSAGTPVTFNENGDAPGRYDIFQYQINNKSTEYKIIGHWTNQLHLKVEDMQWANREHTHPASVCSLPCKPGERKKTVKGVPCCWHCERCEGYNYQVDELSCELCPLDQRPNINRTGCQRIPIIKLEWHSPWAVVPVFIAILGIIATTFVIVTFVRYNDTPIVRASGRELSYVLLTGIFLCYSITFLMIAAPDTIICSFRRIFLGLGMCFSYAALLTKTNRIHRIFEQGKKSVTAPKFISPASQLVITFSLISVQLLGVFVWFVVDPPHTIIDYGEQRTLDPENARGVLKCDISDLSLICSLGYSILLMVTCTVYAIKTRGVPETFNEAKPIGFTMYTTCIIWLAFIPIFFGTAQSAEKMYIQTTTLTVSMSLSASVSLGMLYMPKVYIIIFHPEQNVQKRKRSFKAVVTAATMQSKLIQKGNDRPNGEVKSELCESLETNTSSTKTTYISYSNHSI
row,SMILES,z-score
1,C/C(=C/C(=O)NCc1ccccc1)C(=O)O,0.149
2,Cc1nc2cc(-c3ccsc3-n3c(C)ccc3C)[nH]n2c(=O)c1Cl,1.43
3,O=S(=O)(Nc1nccs1)c1ccc2c(c1)OCCO2,0.327
4,Cn1c(=O)c2c(nc(SCC(=O)N3c4ccccc4CCc4ccccc43)n2C)n(C)c1=O,-0.239
5,CC(C)CC[n+]1ccn(-c2nc3ccccc3nc2[N-]S(=O)(=O)c2ccccc2)c1,-0.323
6,Cc1csc(NC(=O)CCn2c(=O)oc3ccccc32)n1,0.0239
7,CCC(=O)Nc1nc2ccccc2n1Cc1ccccc1C,-0.561
8,O=C(/C=C/c1cccs1)N1CCN(c2ccccc2F)CC1,0.0251
9,CSc1nc(N2CCOCC2)c2c3c(sc2n1)CCC3,-1.18
10,O=c1c2ccccc2n(Cc2cccc(F)c2)c(=O)n1C1CCCC1,-1
11,Cc1[nH]n(-c2cccc(Cl)c2)c(=O)c1-c1ccccc1,0.13
12,Cc1ccccc1S(=O)(=O)c1c(C)cc(-c2ccccc2)[nH]c1=O,-0.0464
13,O=C(COC(=O)c1cc2c(s1)CCCC2)NCc1ccccc1Cl,-0.272
14,COC(=O)c1c(N2C(=O)[C@H]3[C@@H](C2=O)[C@]2(C(=O)Nc4c(C)cccc42)N2CCC[C@@H]32)sc(C)c1C,-0.136
15,CCOc1cc(C(N)=O)cc(OCC)c1OCC,-0.232
16,Cc1ccc(-c2nc3ccccc3s2)cc1NC(=S)NC(=O)c1ccccc1,0.744
17,CC(NC(=O)c1nn(C)c(=O)c2ccccc12)c1ccc(F)cc1 (stereo unspecified),-0.0748
18,COc1ccc(C(C(=O)NC2CCCC2)N(Cc2ccc(C)cc2)C(=O)c2ccn[nH]2)cc1OC (stereo unspecified),-0.0852
19,CCOC(=O)N/N=C(C)/C=C/c1ccccc1,0.121
20,Cc1ccc2nc(NC(=O)CSCC(=O)OCC(=O)c3ccc(Br)cc3)sc2c1,-0.123
21,Cc1coc2cc3oc(=O)cc(C)c3cc12,0.0366
22,O=C(NCC(c1cccnc1)N1CCOCC1)C1CCCCC1 (stereo unspecified),0.409
23,COC(=O)[C@H](CCSC)NC(=O)NCc1ccc(S(N)(=O)=O)cc1,-0.181
24,O=C(CSc1nnc(-c2cccnc2)n1Cc1ccco1)c1ccc(Cl)cc1,-0.222

row,SMILES,z-score
1,Cc1cc(CNC(=O)c2cc(Br)ccc2Cl)nn1C,0.233
2,COC(=O)c1ccc(-c2n[nH]c(=O)c3ccccc23)cc1,-0.383
3,O=C(NCCc1c[nH]c2ccccc12)c1cccnc1,-0.104
4,COc1ccc(C2C(C(=O)NCCN(C)C)c3ccccc3C(=O)N2C)cc1OC (stereo unspecified),0.322
5,O=C(NCCc1cccc(Cl)c1)c1cccnc1,-0.413
6,O=C(Nc1cccc(Cl)c1)c1ccc(F)c(S(=O)(=O)NCc2cccs2)c1,1.5
7,O=c1c(=NNc2ccccc2Cl)c(=O)c2ccccc12,-0.28
8,Cc1ccc(-c2noc(CN3CCN(c4ccccc4F)CC3)n2)cc1,-0.0322
9,COc1ccc(C2CC(c3cccs3)=NN2C(=O)CSc2nc3ccccc3o2)cc1 (stereo unspecified),-0.84
10,O=C(CCc1nc2ccccc2[nH]c1=O)OCc1ccc(S(=O)(=O)N2CCOCC2)cc1,-0.269
11,Cc1ccc(NC(=O)CN(C)S(=O)(=O)c2cccs2)cc1F,1.63
12,O=S(=O)(NCc1cc(-c2ccc(Cl)cc2)no1)c1ccc(Cl)cc1,0.0786
13,Cc1c(C(=O)N2CCc3ccccc32)oc2c1C(=O)CC(C)(C)C2,-0.627
14,O=C(NNC(=O)c1cccnc1)Nc1cccc(Cl)c1Cl,-0.606
15,Cc1nn(CC(=O)Nc2ccc(C(=O)N(C)C)cc2)c(=O)c2ccccc12,-0.0892
16,Cc1ccc(S(=O)(=O)Nc2c(C)[nH]c(=O)[nH]c2=O)cc1C,-0.15
17,Cc1cc(-c2ccccc2)nc2[nH]n(-c3ccccc3)c(=O)c12,-0.196
18,CCOC(=O)CC(=O)Nc1c(C)cc(C)cc1C,0.312
19,Oc1ccc(N=Nc2cccc(Cl)c2)cc1C=Nc1ccc(N2CCOCC2)cc1,-0.0987
20,Cc1nn(Cc2ccccc2)c(C)c1NC(=O)CSc1n[nH]c(C)c1[N+](=O)[O-],-0.0292
21,O=c1[nH]nc(SCc2ccccc2)c(=O)[nH]1,-0.199
22,CCOC(=O)Cc1csc(NC(=O)CSc2nc(N)c3c(C)c(C)sc3n2)n1,-0.0512
23,COc1cccc(NC(=S)N(CCCN2CCOCC2)Cc2cn(C)c3ccccc23)c1,-0.541
24,c1ccc(-n2ncc3c(NCc4ccc5c(c4)OCO5)ncnc32)cc1,0.0779

row,SMILES,z-score
1,CCOC(=O)c1[nH]c2ccccc2c1NC(=O)CCN1CCN(C(=O)OCC)CC1,1.14
2,CC1(C)CC(=O)C2=C(C1)OC(/N=C/N1CCOCC1)=C(C#N)C2c1ccccc1 (stereo unspecified),active: -4.24
3,CCCN1CCN(S(=O)(=O)c2ccc(OC)c(Br)c2)CC1,-0.148
4,CSc1ccc(CN(C)CC(=O)Nc2cccc(Br)c2)cc1,-0.107
5,Nc1nc2c(s1)C(=O)CC(c1ccccc1)C2 (stereo unspecified),0.0058
6,O=C1NC(Nc2nc3ccccc3s2)(C(F)(F)F)C(=O)N1C1CCCCC1 (stereo unspecified),0.11
7,O=C(c1ccc(F)cc1)N(NC(=O)C(O)(c1ccccc1)c1ccccc1)c1ccccc1,-0.654
8,O=C1OCCC1Sc1nc2ccccc2s1 (stereo unspecified),-1.76
9,CCOc1ccc(NC(=O)CNc2ccc(C)cc2Cl)cc1,-0.199
10,O=C(NCc1ccco1)c1ccc(COc2cc(Cl)ccc2Cl)cc1,0.104
11,CC(C)n1c(SCC(=O)Nc2ccccc2)nc2c1c(=O)n(C)c(=O)n2C,-0.27
12,Cc1[nH]nc(-c2ccc(O)c(C)c2O)c1Oc1ccccc1,0.136
13,O=C(O)C(c1ccccc1)C1(O)CCCC1 (stereo unspecified),-0.0456
14,Cc1ccc(OCCOCCOc2ccc(Br)cc2/C=N\NC(=O)c2ccncc2)cc1,-0.161
15,CCC(=O)Nc1cc(-c2nn(C)c(=O)c3ccccc23)ccc1OC,-0.769
16,CC(NC(=O)C1CCN(S(=O)(=O)c2cc([N+](=O)[O-])ccc2Cl)CC1)c1ccccc1 (stereo unspecified),-0.238
17,CCN(CC)S(=O)(=O)c1ccc2c3c(cccc13)C(=O)S2,0.0309
18,Oc1ccc(CNC2CCCCC2)cc1,-0.116
19,c1ccc(C(c2nnnn2C2CCCCC2)N2CCc3ccccc3C2)nc1 (stereo unspecified),-0.238
20,C=CCOc1c(Br)cc(/C=N/Nc2ccc(C(=O)O)cc2)cc1OCC,-0.793
21,O=C(Nc1ccn(Cc2ccccc2)n1)c1n[nH]c([N+](=O)[O-])c1Cl,-0.885
22,Cc1ccn2cc(-c3ccc(NS(=O)(=O)c4ccccc4)cc3)nc2c1,0.0733
23,CCOc1ccc(N(CC)S(=O)(=O)c2ccc3c(c2)oc(=O)n3C)cc1,0.841
